From ChEMBL document CHEMBL4888484, “Replenishing the malaria drug discovery pipeline: Screening and hit evaluation of the MMV Hit Generation Library 1 (HGL1) against asexual blood stage Plasmodium falciparum ,using a nano luciferase reporter read-out” (2022)
Out of some 150,000 compounds screened, about 540 (0.36%) showed an effect of 50% or more. This is one part of the list.

system: Plasmodium falciparum; experiment: Primary screen in NF54 nanoGlo assay, in single point, at 2uM, 72h; a lower Z score goes with more inhibition; type: functional, Erythrocyte; conditions: timepoint 72 hour

SMILES | % Inhibition [%] | Z score
CC(C)c1cnc(CN[C@@](C)(CO)C2CCCCC2)o1 | -3 | 0.32
Cc1n[nH]c(CN(C)Cc2ccc(-n3cccn3)cc2)n1 | -8 | 1.43
CN(C)[C@@H](CNc1nccn2nnnc12)c1cccs1 | -1 | 0.24
CCc1ccsc1C(=O)N1CCCC[C@@H]1C(=O)O | -9 | 1.15
Cc1cc(C)nc(NS(=O)(=O)c2ccc(NC(=O)c3cc(-c4ccccc4)on3)cc2)n1 | 19 | -2.18
COCC(=O)NC1CCN(c2ccccc2C(=O)N2CCCCC2)CC1 | -11 | 1.67
O=C(c1ccc(OC2CCC2)cc1Cl)N1CC[C@@](F)(CO)C1 | -4 | 0.46
NC(=O)CN1CCC2(CC1)NC(c1ccc(OC(F)(F)F)cc1)=NO2 | 30 | 0.05
CCc1nc(-c2c3n(c(=O)n(Cc4ccc(C(F)(F)F)cc4)c2=O)CCCC3)no1 | 1 | -0.09
CC[C@]1(CO)CCCN(C(=O)c2cccc(-c3c(C)cccc3Cl)c2)C1 | -1 | 0.17
CC(C)S(=O)(=O)N1CCN(C(=O)[C@H](Cc2ccccc2)n2cnnn2)CC1 | -13 | 1.63
O=C(CCc1nc(-c2nnc[nH]2)no1)N1CC[C@H](c2c(F)cccc2F)C1 | -17 | 1.94
O=C1CCC(=O)N1CCCc1ccc(Cl)cc1 | 2 | -0.31
CCN(CC(C)(C)O)C(=O)NCc1cccc(-n2ccnc2)c1 | -7 | 0.89
O=C(Nc1nc2ccccc2s1)C1CC1c1ccccc1 (stereo not drawn) | -30 | 3.52
CCn1cc(C(=O)NC[C@H]2Cc3ccccc3CN2)c(C(C)C)n1 | -1 | 0.15
c1cnc(CN2C[C@@H]3CC[C@H]2CN(C2Cc4ccccc4C2)C3)nc1 | -9 | 1.62
COc1ccnc(NC(=O)c2ccc(C)[nH]c2=O)c1 | -6 | 0.75
COc1ccc(Cl)cc1NC(=O)COC(=O)CCC(=O)Nc1cccc(C(=O)OCC(C)C)c1 | -6 | 0.96
CC1CC(N(C(=O)c2ccco2)c2ccccc2)c2ccccc2N1 (stereo not drawn) | -2 | 0.26
COCCN1C(=O)CC(CC(=O)N2CCCC(C)C2)(c2ccccc2F)C1=O (stereo not drawn) | -9 | 1.7

SMILES | % Inhibition [%] | Z score
O=C(O)c1ccc(N[C@H]2CCOC2)c(Br)c1 | -10 | 0.91
COc1ccc2c(c1F)CC[C@@H]2Nc1ccc(CN(C(C)=O)C(C)C)cc1 | 0 | -0.03
C=CCOc1nc(NCC)nc(NCC)n1 | -3 | 0.34
CN(C)S(=O)(=O)N1C[C@H]2CC[C@@H](C1)N(Cc1nc(C(F)(F)F)no1)C2 | 1 | -0.15
COc1cc(Cl)c(NS(=O)(=O)c2cc(-c3cc(C)no3)ccc2OC)c(OC)c1 | -8 | 0.99
COc1ccnc(CC(=O)N2CCC(Cc3cccc(F)c3F)CC2)c1 | -2 | 0.28
O=S(=O)(NCCc1c[nH]c2ncccc12)c1ccc(Cl)cc1 | -8 | 0.89
Cc1c(-c2c(-c3ccccc3)ncn2Cc2noc(-c3ccco3)n2)cnn1C | 6 | -0.88
Cc1ccc(Cl)c(S(=O)(=O)Cc2cnn(CCF)c2)c1 | -12 | 2.03
Cn1cc(C(=O)N2CC3(COC(C)(C)OC3)C2)nn1 | -7 | 1.12
COc1cnc(C(=O)NC[C@@H]2CCCC[C@H]2O)nc1 | 6 | -0.88
COc1cc([C@H]2NC3(CCCCC3)C(=O)N2C)cc(OC)c1OC | 5 | -0.51
CCCS(=O)(=O)N(c1cc(-n2ncc(=O)n(C)c2=O)c(F)cc1Cl)S(=O)(=O)CCC | -1 | 0.2
CCOc1ccc(C[C@@H]2CC[C@H](CN3CCOCC3)O2)cc1CNC | 18 | -2.34
O=C1C[C@H](Cc2ccc(C(=O)Nc3nc4ccccc4[nH]3)cc2)C(=O)N1 | 7 | -0.81
O=C(Nc1ccc2c(c1)OCO2)N1C2CCC1COC2 | 1 | -0.09
O=C(O)c1noc2cc(Br)ccc12 | -12 | 1.41
CN(CCCNC(=O)c1ccco1)CC(F)(F)F | -8 | 0.99
CN(C[C@H]1CCCCO1)C(=O)c1cc2c(Cl)cccc2[nH]1 | -7 | 1.22
COc1ccc(C2=NN(c3ccccc3)[C@H](c3cn(-c4ccccc4)nc3-c3ccc(F)cc3)C2)cc1 | 3 | -0.38
CCCC[C@H](Nc1nccc(-n2cccn2)n1)C1CCC1 | -7 | 1.19

SMILES | % Inhibition [%] | Z score
COc1ccnc(NC(=O)c2cc(C3CC3)no2)c1 | -17 | 3.21
O=C(Cc1cc(Cl)ccc1Br)N1CC(O)C1 | 0 | 0.07
CCOC(=O)c1nccn1-c1ccc(OC[C@H]2CCCO2)cc1 | -3 | 0.44
COc1cccc(CNC(=O)CN2C(c3ccccc3)=C[C@@H](c3ccc(Cl)cc3)n3nnnc32)c1 | 2 | -0.16
O=C(CC1CCCCCC1)N1CCCC[C@H]1c1nc(=O)[nH][nH]1 | 8 | -1.31
O=C(CCCn1cccn1)NS(=O)(=O)c1ccc2ccccc2c1 | -7 | 0.99
C=C(C)CN(CC)S(=O)(=O)c1c(F)cccc1F | 12 | -2.3
CCOC(=O)N1CC[C@H](NCCc2csc(CC)n2)C1 | 7 | -1.01
Cc1nc(NCc2ccc3c(c2)CCCC3)c2c(C)noc2n1 | -6 | 0.51
CCN1CCN(CC(=O)N2C[C@H](C)[C@@](O)(C3CC3)C2)CC1 | -18 | 1.55
CCC(=O)NS(=O)(=O)c1ccc(C)nc1 | 3 | -0.27
CCCCN(Cc1cccn1Cc1ccc(Br)cc1)C(=O)CN(CCC(C)C)C(=O)COc1ccccc1 | -16 | 2.28
CCN(C)C(=O)C1CN(C(=O)c2ccco2)CC1c1cccc(C(F)(F)F)c1 (stereo not drawn) | -10 | 1.48
CCC(CC)n1ncc(C)c1NC(=O)CNC(=O)c1nonc1C | -2 | 0.27
CC(C)Oc1ccccc1CNC(=O)N1CCCC[C@H]1c1nnc2n1CCCC2 | -26 | 2.61
Cc1ccc(S(=O)(=O)c2c(C)c(C)n(CC(C)C)c2NC(=O)c2cccs2)cc1 | -8 | 0.98
NC(=O)Cc1nc(CN2CCOCC2)n(-c2cccc3c2CCC3)n1 | 1 | -0.07
CN(C(=O)c1cc(O)nc2ccccc12)c1ccc(S(C)(=O)=O)cc1 | -2 | 0.2
Cc1ncccc1C(=O)N[C@H]1CCOC[C@@H]1Oc1cccc(F)c1 | -3 | 0.32
C[C@H](Oc1cnc2ccccc2c1)C(=O)N1CCCC2(CC1)CC2 | -15 | 2.91
Cc1noc(C)c1CN1CC2(CCN(c3ccnc4ccccc34)CC2)CC1=O | -2 | 0.34

SMILES | % Inhibition [%] | Z score
O=C(NCC1CCS(=O)(=O)C1)C1CC1c1ccc2ccccc2c1 (stereo not drawn) | -7 | 0.76
CCCN1CCCN(c2ccnc(C(=O)NCc3ccncc3)c2)CC1 | -8 | 1.5
c1ccc2c(c1)CCO[C@H]2C1NCCN1 | -5 | 0.64
Cc1noc(C)c1Cn1c(NCCO)nc2ccccc21 | -12 | 2.29
CC1CCC(C(C)C)C(NC(=O)CCNS(C)(=O)=O)C1 (stereo not drawn) | 12 | -1.8
CCCc1ccc(C(=O)N2CCC(n3nccn3)CC2)cc1 | -9 | 0.99
Cc1ccc(C)c2[nH]c(=O)c(CCNC(=O)C(C)(C)Oc3ccc(Cl)cc3)cc12 | -9 | 1.6
CC(=O)N1CCO[C@@H](Cn2ccnc2-c2nccn2C)C1 | -9 | 1.02
CC[C@@H](C(=O)N(CCc1ccccc1)C1CCN(C)CC1)n1cccn1 | -20 | 2.36
c1ccc(-n2ncc3c(N4CCC[C@H](N5CCCC5)C4)ncnc32)cc1 | 2 | -0.26
Cc1ccc(NS(=O)(=O)CCCN2C(=O)c3ccccc3C2=O)c(Cl)c1 | -39 | 4.56
CN1CCc2c(c(N3CCN(C(c4ccccc4)c4ccccc4)CC3)nc3[nH]nc(N)c23)C1 | -24 | 2.87
O=C(CCn1c(=S)oc2ccccc21)N1CCc2ccccc2C1 | 11 | -1.27
O=C(Nc1ccc(Cl)cn1)c1cc2c(s1)CCCC2 | -9 | 0.92
C[C@@H](CC(=O)NS(=O)(=O)c1cnn(C)c1)c1ccccc1F | 6 | -0.89
CCCCNC(=O)[C@H](CC(N)=O)NS(=O)(=O)c1cccc(F)c1 | 5 | -0.68
C[C@H](Oc1ccccc1)C(=O)Nc1c2c(nn1-c1ccccc1)CS(=O)(=O)C2 | -12 | 2.08
CC(C)Cc1noc(CNC(=O)Cn2ncc(N(C)C)cc2=O)n1 | 14 | -1.59
CCOc1cncc(CN(C)[C@H]2CC[C@H](O)CC2)c1 | -10 | 1.94
CC1CCN(C(=O)Cc2nnc(-c3ccccc3)o2)CC1 | -7 | 0.92
COc1cccc(NC(=O)CN2CN(c3ccccc3)C3(CCN(C(=O)C[C@@H](C)CC(C)(C)C)CC3)C2=O)c1 | 23 | -4.35
